Source: the supplement of paper PMC3334620
The full ranking holds about 33,000 sequences; the median of “E-score (-0.5 to 0.5)” is about -0.036, and the highest 2% start at about 0.37. This is one part of the list.

target: T1, Yer064c (UniProt P40041); assay: PBM E-score (8-mer binding enrichment) (E-score (-0.5 to 0.5)); higher = stronger / more preferred TF binding; most listed sequences are background and not binding sites; conditions: protein concentration: 200 nM; construct: GST-full length
T1 sequence: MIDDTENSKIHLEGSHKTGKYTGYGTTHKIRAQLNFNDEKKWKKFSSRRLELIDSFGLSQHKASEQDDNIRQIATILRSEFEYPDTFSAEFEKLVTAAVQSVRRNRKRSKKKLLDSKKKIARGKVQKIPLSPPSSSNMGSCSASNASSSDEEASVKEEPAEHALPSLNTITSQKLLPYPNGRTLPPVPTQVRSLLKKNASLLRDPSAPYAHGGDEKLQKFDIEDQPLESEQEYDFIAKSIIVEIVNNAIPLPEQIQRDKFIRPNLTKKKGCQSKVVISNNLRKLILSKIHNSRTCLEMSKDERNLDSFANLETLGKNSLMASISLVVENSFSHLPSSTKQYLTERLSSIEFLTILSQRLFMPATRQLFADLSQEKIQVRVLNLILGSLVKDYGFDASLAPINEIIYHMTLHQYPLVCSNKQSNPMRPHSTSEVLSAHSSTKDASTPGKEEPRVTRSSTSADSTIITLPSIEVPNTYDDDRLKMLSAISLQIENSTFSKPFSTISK
Outline: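 GST-tagged yeast TFs (full-length or DNA-binding domain) were made by PURExpress in vitro transcription/translation and applied at about 100-200 nM to universal all-10-mer Agilent arrays. The arrays were made double-stranded by primer extension, on fresh or once-stripped slides. Bound protein was detected with fluorescent anti-GST, and scans were normalised with masliner. Each ungapped eight-base word, pooled with its reverse complement, received an E-score (modified Wilcoxon-Mann-Whitney statistic) from the Universal PBM Analysis Suite.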

Row | Sequence | PBM E-score
1 | ATAATATG | -0.107
2 | CCGTTTTC | -0.0936
3 | CCCCTGTC | -0.333
4 | ACCTTGTA | 0.0112
5 | GATCCCTA | -0.0608
6 | GTCGGTGA | 0.13
7 | CACGAAAA | 0.0751
8 | CAAAACTA | 0.117
9 | AAGCTGCC | -0.236
10 | AATCCTCA | 0.0864
11 | CAACCGTA | -0.103
12 | AAATAGCG | -0.0475
13 | GGATCGAA | -0.0574
14 | CGCTATCA | -0.271
15 | GACGCACC | -0.166
16 | ACGCTGCA | -0.141
17 | CCGAGAAC | -0.033
18 | CCTCACCC | -0.213
19 | GCTCTCAC | -0.335
20 | AAGCTCAT | -0.0196
21 | AGGATCCA | -0.145
22 | AACGCTAC | -0.265
23 | AACCTCTT | 0.161
24 | ATATCGTC | -0.193
25 | GCAAATCA | 0.0991

Row | Sequence | PBM E-score
26 | AAGTCCGC | -0.0299
27 | CTCCGCTA | 0.00784
28 | CGCCTGCC | -0.112
29 | GCTACCGA | -0.0666
30 | AGGTCCGG | -0.239
31 | ACAGAACG | 0.0496
32 | GAAAGTTC | -0.273
33 | GAAGATTC | 0.276
34 | AAGAGTTC | 0.0614
35 | GATCGAAA | 0.00101
36 | TCCTTCGA | 0.00429
37 | ATAAGGTA | -0.0959
38 | GTACTCTA | 0.121
39 | CCGCCTAA | -0.142
40 | GCTGCCGA | -0.159
41 | CTTTCGCC | -0.218
42 | GAACACTC | -0.0178
43 | AGTAGGTA | 0.0273
44 | ACAACGCT | -0.108
45 | AGACAAGA | -0.0299
46 | TAACACAA | 0.0793
47 | AATTGCGA | -0.0878
48 | AACGTCCT | -0.254
49 | CGGTAGAC | 0.0865
50 | AATATCAA | 0.134

Row | Sequence | PBM E-score
51 | ACAGGTCC | -0.241
52 | AGCTTGGA | -0.209
53 | ATCCGGAC | -0.228
54 | AGATCTTC | -0.202
55 | GATAGAAC | -0.0928
56 | ATTGCTGA | 0.0771
57 | ATTGGTTG | -0.0268
58 | CTCGAGCC | -0.149
59 | AAGAACGC | -0.215
60 | CCCGGGGA | -0.133
61 | CTGTAATA | 0.153
62 | ATAAAAAT | 0.173
63 | CCCCATTA | -0.0493
64 | ATTTACAC | -0.146
65 | GAATGTAC | -0.0652
66 | CCGGCCAG | -0.293
67 | CAATGTAC | -0.12
68 | GGATCAAC | 0.0597
69 | ATACTAGC | -0.13
70 | AGCGGACT | 0.222
71 | ATTAGGAA | 0.00918
72 | AACGTTAA | 0.118
73 | GATTTCCC | -0.00786
74 | CGGCTAAC | 0.0427
75 | AGCCGGTG | -0.186

Row | Sequence | PBM E-score
76 | ATCCTACC | -0.0858
77 | CTCGCAGA | -0.0326
78 | ACGTCCAT | -0.2
79 | GAGGGTAC | -0.115
80 | AGGTGATC | 0.0909
81 | GGAATTGA | -0.09
82 | ACTAATGA | 0.333
83 | CACTCGTA | -0.0316
84 | GGGTTACA | -0.123
85 | ACGTATTA | 0.026
86 | ATTGAAAC | 0.115
87 | TCCGCTCA | -0.0402
88 | GCACCTTA | 0.0208
89 | CAGGATTC | 0.119
90 | ACAGTCTC | 0.146
91 | CGATCACG | 0.143
92 | CGGCCACG | -0.301
93 | CGCGAAGC | -0.0304
94 | AGCGCAGG | -0.209
95 | ACTTAGAG | 0.0977
96 | CAGCAGGC | 0.0176
97 | CGGACTAC | 0.248
98 | GTAGTCGA | 0.263
99 | AGTACATG | 0.0113
100 | GGGTGTAC | -0.166

Row | Sequence | PBM E-score
101 | ACCTGACA | 0.145
102 | ACTATGTG | 0.165
103 | ATTACTGG | 0.171
104 | CCCAGTCA | 0.316
105 | CCGGATCC | -0.322
106 | ACTTCCGG | 0.0468
107 | CAGCGGTC | -0.224
108 | AAGGGAGC | -0.26
109 | ACCTGAAA | -0.0522
110 | GATAAAGC | -0.121
111 | AAGCATGT | -0.0498
112 | CCGTCTGC | -0.191
113 | AGCCAAAT | 0.0167
114 | AAATGTCG | -0.3
115 | ATGCGGTA | -0.206
116 | ACAACGAG | 0.127
117 | TATTACAA | 0.051
118 | AATCTCAT | 0.196
119 | CTAGGGGA | -0.0203
120 | CAGTCACA | 0.42
121 | CTGGTGTC | -0.0248
122 | ATTTTTAG | 0.097
123 | ACTCACGA | 0.388
124 | CACAATCC | 0.0619
125 | AAGGAGCA | -0.219

Row | Sequence | PBM E-score
126 | CTCGACAG | 0.13
127 | AACGAACT | 0.119
128 | CGGAAAGA | -0.00726
129 | GAGCTGCC | -0.133
130 | CCAAACTA | 0.016
131 | TCGTCGCA | -0.0159
132 | GACACTGC | -0.249
133 | CCATAACC | -0.105
134 | ATGAGGCG | -0.224
135 | ATCGGTTG | -0.00251
136 | CTGGGGGC | -0.365
137 | ACGATAGT | 0.147
138 | GGAGTTCA | 0.134
139 | AGCAATGA | 0.147
140 | TGATCACA | 0.236
141 | AGCAACGG | -0.185
142 | CGAATTCA | -0.059
143 | CCTACGTA | 0.073
144 | AAATGGCG | -0.213
145 | CTGGATCA | 0.0776
146 | CGGCAATA | -0.0808
147 | TAGAACTA | 0.0448
148 | AGCCAGGC | -0.0633
149 | CAGTTCCG | -0.195
150 | ATAAGCGC | -0.127

Row | Sequence | PBM E-score
151 | ATGAGTCC | 0.442
152 | AAATTTGG | -0.034
153 | GCCAGTCC | -0.276
154 | AGAGCCAT | 0.225
155 | AGACCCCG | -0.123
156 | CTGCACTC | 0.12
157 | CTTGCACA | -0.0803
158 | GACAAAGC | -0.153
159 | AATGAGGG | -0.0827
160 | CCCACGTC | -0.157
161 | CGCGGCAG | -0.159
162 | AGCCCGAC | -0.0445
163 | ACCTATCT | -0.293
164 | ACTGTTTC | -0.016
165 | GATCGAGC | -0.119
166 | GACCCCTA | -0.152
167 | TATCGATA | 0.0589
168 | ACCTGGAT | -0.0406
169 | AGCCTAAG | -0.149
170 | ACGCGTAT | -0.171
171 | GGAGTAGA | -0.0156
172 | GTTGTCTA | -0.0929
